From the supplement of paper PMC8047034
Counter-ions that a name gives are not always drawn. This is one part of the list. Many values rest on one well or one pass, so single values are uncertain.

Columns and labels:
OVCAR4 = test: log2 surviving fraction (library drug vs vehicle, or drug + carboplatin vs carboplatin alone; relative to plate median); ovarian cancer lines: OVCAR4 is platinum-sensitive and Ov4Carbo platinum-resistant; higher = more cell survival; conditions: library drug concentration 10 µM, 7 days
Ov4Carbo = test: as above; conditions: library drug concentration 10 µM, 7 days

Structure (SMILES)	log2 surviving fraction (OVCAR4; carboplatin co-treatment 0 µM)	log2 surviving fraction (OVCAR4; carboplatin co-treatment 5 µM)	log2 surviving fraction (Ov4Carbo; carboplatin co-treatment 0 µM)	log2 surviving fraction (Ov4Carbo; carboplatin co-treatment 5 µM)
COc1ccc2cc([C@H](C)C(=O)O)ccc2c1 [Naproxen (Aleve)]	0.685	0.385	-1.38	-0.664
O=C1c2ccccc2C(=O)C1c1ccccc1 [Phenindione (Rectadione)]	0.925	0.693	0.339	0.793
CCC[C@@H]1C[C@@H](C(=O)N[C@@H]([C@H]2O[C@H](SC)[C@H](O)[C@@H](O)[C@H]2O)[C@@H](C)O)N(C)C1 [Lincomycin hydrochloride (Lincocin)]	0.399	0.538	0.251	0.165
Cc1nccn1CC1CCc2c(c3ccccc3n2C)C1=O (configuration not stated) [Ondansetron (Zofran)]	-2.13	0.276	0.286	0.108
O=C(c1ccccc1)c1ccc2n1CCC2C(=O)O (configuration not stated) [Ketorolac (Toradol)]	1.63	0.849	0.589	0.515
CC(C)CCC[C@@H](C)[C@H]1CC[C@H]2[C@@H]3CC=C4C[C@@H](O)CC[C@]4(C)[C@H]3CC[C@]12C [Cholesterol]	-0.261	-0.00589	0.765	-0.169
Cc1cc(C2CCCCC2)n(O)c(=O)c1 [Ciclopirox ethanolamine]	-9.2	-8.26	-8.79	-7.93
CN(C)CC/C=C1/c2ccccc2Sc2ccc(Cl)cc21 [Chlorprothixene]	1.27	0.718	-2.4	0.284
COc1cc(OC)c(C(=O)CCCN2CCCC2)c(OC)c1 [Buflomedil HCl]	-0.216	0.379	0.0152	0.217
CCOC(=O)c1ccc(OC(=O)CCCCCNC(=N)N)cc1 [Gabexate mesylate]	0.872	0.482	-0.147	0.204
CC[C@H]1OC(=O)[C@H](C)[C@@H](O[C@H]2C[C@@](C)(OC)[C@@H](O)[C@H](C)O2)[C@H](C)[C@@H](O[C@@H]2O[C@H](C)C[C@H](N(C)C)[C@H]2O)[C@](C)(O)C[C@@H](C)CN(C)[C@H](C)[C@@H](O)[C@]1(C)O [Azithromycin Dihydrate]	0.214	0.341	-0.18	-0.0735
CO/N=C(\C(=O)N[C@@H]1C(=O)N2C(C(=O)OCOC(=O)C(C)(C)C)=C(/C=C\c3scnc3C)CS[C@H]12)c1csc(N)n1 [Cefditoren pivoxil]	1.26	1.09	0.847	0.318
C[C@@H](O)[C@H]1C(=O)N2C(C(=O)OCOC(=O)C(C)(C)C)=C(SC3CN(C4=NCCS4)C3)[C@H](C)[C@H]12 [Tebipenem pivoxil (L-084)]	-0.405	0.309	-0.0252	-0.363
